Assay results as given in the supplement of paper PMC4967469.
Lines with a small IC50 respond at low doses; where the fit passes the top or lowest dose, that dose stands as a limit. AUC sums up the same curve from the lowest dose to the 256-fold higher top dose; values near 1 show little effect. For part of these data: The top dose, if marked as inferred, was derived from the fitted curves, not read from the paper.

What was measured:
Assay in all cases: Viability of human cancer cell lines after 72 h of drug (GDSC screen)
[1] = compound: CC(C)(C)c1nc(-c2cccc(NS(=O)(=O)c3c(F)cccc3F)c2F)c(-c2ccnc(N)n2)s1 [Dabrafenib]; conditions: top dose 10 µM
Description: (§1)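 Human cancer cell lines in 384-well plates, medium with 10% serum, drug for 72 h over a 256-fold dose range (nine 2-fold or five 4-fold steps up to the top dose). Adherent lines were fixed and stained with the nucleic acid dye Syto60, suspension lines read with resazurin; signal relative to control wells, capped at 0 and 100%. One two-parameter sigmoid per drug and line, fitted in a mixed model over all curves with the slope shared within a line.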

[2] = compound: CCc1c2c(nc3ccc(O)cc13)-c1cc3c(c(=O)n1C2)COC(=O)[C@]3(O)CC [SN-38]; conditions: top dose 0.05 µM; top dose inferred
Description: as §1

[3] = compound: CN(Cc1cnc2nc(N)nc(N)c2n1)c1ccc(C(=O)N[C@@H](CCC(=O)O)C(=O)O)cc1 [Methotrexate]; conditions: top dose 0.2 µM
Description: as §1

[4] = compound: CNC(=O)c1ccccc1Sc1ccc2c(/C=C/c3ccccn3)n[nH]c2c1 [Axitinib]; conditions: top dose 2 µM
Description: as §1

[5] = compound: O=C(CCCCCCC(=O)Nc1ccccc1)NO [Vorinostat]; conditions: top dose 10 µM
Description: as §1

| Cell Line | AUC [1] | IC50 [1] [nM] | AUC [2] | IC50 [2] [nM] | AUC [3] | IC50 [3] [nM] | AUC [4] | IC50 [4] [nM] | AUC [5] | IC50 [5] [nM] |
| --- | --- | --- | --- | --- | --- | --- | --- | --- | --- | --- |
| VA-ES-BJ (soft tissue, adherent) | 0.977 | > 10000 | 0.644 | 8.04 | 0.974 | > 200 | 0.888 | > 2000 | 0.614 | 1310 |
| VAL (B-cell lymphoma, suspension) | 0.963 | > 10000 | 0.682 | 10.1 | 0.827 | 122 | 0.944 | > 2000 | 0.648 | 1610 |
| VMRC-LCD (lung adenocarcinoma, adherent) | 0.979 | > 10000 | 0.891 | 41.5 | 0.991 | > 200 | 0.876 | 1440 | 0.547 | 822 |
| VMRC-MELG (melanoma, adherent) | 0.956 | > 10000 | 0.988 | > 50 | 0.989 | > 200 | 0.962 | > 2000 | 0.78 | 4330 |
| VMRC-RCZ (kidney, adherent) | 0.85 | 9620 | 0.76 | 20.4 | 0.973 | > 200 | 0.941 | > 2000 | 0.86 | > 10000 |
| WIL2-NS (lymphoid neoplasm, suspension) | 0.99 | > 10000 | 0.413 | 1.89 | 0.675 | 34.6 | 0.977 | > 2000 | 0.622 | 1260 |
| WM35 (melanoma, adherent) | 0.085 | < 39.1 | 0.781 | 20.9 | 0.694 | 43.9 | 0.936 | > 2000 | 0.744 | 3140 |
| WM278 (melanoma, adherent) | 0.456 | 466 | 0.647 | 8.45 | 0.984 | > 200 | 0.949 | > 2000 | 0.858 | 9940 |
| WM1552C (melanoma, adherent) | 0.833 | 6500 | 0.963 | > 50 | 0.872 | 193 | 0.983 | > 2000 | 0.878 | > 10000 |
| WSU-NHL (lymphoid neoplasm, suspension) | 0.845 | 5950 | 0.461 | 2.48 | 0.5 | 12.5 | 0.94 | > 2000 | 0.558 | 882 |
| YAPC (pancreas, adherent) | 0.824 | 7980 | 0.734 | 17.4 | 0.923 | > 200 | 0.949 | > 2000 | 0.915 | > 10000 |
| YH-13 (glioma, adherent) | 0.92 | > 10000 | 0.744 | 16.4 | 0.983 | > 200 | 0.83 | 1360 | 0.663 | 1820 |
| YKG-1 (glioma, adherent) | 0.977 | > 10000 | 0.727 | 13.9 | 0.986 | > 200 | 0.959 | > 2000 | 0.73 | 2840 |
| YT (lymphoid neoplasm, suspension) | 0.992 | > 10000 | 0.744 | 13.6 | 0.968 | > 200 | 0.972 | > 2000 | 0.435 | 427 |
| ZR-75-30 (breast, adherent) | 0.965 | > 10000 | 0.981 | > 50 | 0.981 | > 200 | 0.977 | > 2000 | 0.875 | > 10000 |
| huH-1 (liver, adherent) | 0.979 | > 10000 | 0.743 | 18.7 | 0.96 | > 200 | 0.92 | > 2000 | 0.627 | 1520 |
| no-10 (glioma, adherent) | 0.944 | > 10000 | 0.64 | 8.34 | 0.97 | > 200 | 0.983 | > 2000 | 0.892 | > 10000 |
| no-11 (glioma, adherent) | 0.981 | > 10000 | 0.852 | > 50 | 0.976 | > 200 | 0.976 | > 2000 | 0.822 | 7910 |
